Source: the supplement of paper PMC9334596
Where “and” joins values, the source holds several entries; their conditions need not be identical. Equal entries are not always repeated. The full ranking holds about 5,300 compounds; the median of “PER2::LUC luminescence relative to vehicle control” is about 0.96, and the highest 2% start at about 1.3. The list shows a part of the results.

Test system: mPer2Luc MEF
Assay: PER2::LUC luminescence relative to vehicle control (fold of vehicle); higher = higher PER2::LUC reporter signal
Conditions: 10 µM
Procedure, shortened: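 Mouse embryonic fibroblasts carrying the mPer2Luc reporter were seeded at ~3000 cells per well in 384-well plates, 48 h before compounds from commercial libraries were added at 10 μM. Cells were grown in DMEM with 10% FBS at 37 °C and 5% CO2. Luminescence was read with the ONE-Glo luciferase assay system 24 h and 30 h after treatment, followed by an alamarBlue viability assay. The value is PER2::LUC luminescence as fold of vehicle control.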

Compound: CC[C@H](CC#N)OC(=O)N[C@@H](C)c1cccc(NC(=O)Nc2ccc(-c3cnco3)c(OC)c2)c1
- PER2::LUC luminescence (time after treatment 24 h): 0.519
- PER2::LUC luminescence (time after treatment 30 h): 0.497

Compound: CC(=O)c1ccc[nH]1
- PER2::LUC luminescence (time after treatment 24 h): 0.826
- PER2::LUC luminescence (time after treatment 30 h): 0.748

Compound: CO[C@@H]1[C@H](OC(=O)/C=C/C=C/C=C/C=C/C(=O)O)CC[C@]2(CO2)[C@H]1[C@@]1(C)O[C@@H]1CC=C(C)C
- PER2::LUC luminescence (time after treatment 24 h): 0.781
- PER2::LUC luminescence (time after treatment 30 h): 0.78

Compound: C#CCOc1ccc2c(c1)c(-c1ccc(C(C)C)cc1)nc(=O)n2C(C)C
- PER2::LUC luminescence (time after treatment 24 h): 0.714
- PER2::LUC luminescence (time after treatment 30 h): 0.726

Compound: COc1cc2nc(N3CCCC3)nc(NCCCCCN3CCCC3)c2cc1OC
- PER2::LUC luminescence (time after treatment 24 h): 0.307
- PER2::LUC luminescence (time after treatment 30 h): 0.403

Compound: NC(=O)c1cnccn1
- PER2::LUC luminescence (time after treatment 24 h): 0.986 and 1
- PER2::LUC luminescence (time after treatment 30 h): 0.989 and 0.965

Compound: CC(C)(C)CC(C)(C)c1cc(Cc2cc(C(C)(C)CC(C)(C)C)cc(-n3nc4ccccc4n3)c2O)c(O)c(-n2nc3ccccc3n2)c1
- PER2::LUC luminescence (time after treatment 24 h): 0.862
- PER2::LUC luminescence (time after treatment 30 h): 1.02

Compound: Nc1nc(N)c(N=O)c(OCC2CCCCC2)n1
- PER2::LUC luminescence (time after treatment 24 h): 1.08
- PER2::LUC luminescence (time after treatment 30 h): 1.14

Compound: COc1c(-c2ccc3cc(NS(C)(=O)=O)ccc3c2)cc(-n2ccc(=O)[nH]c2=O)cc1C(C)(C)C
- PER2::LUC luminescence (time after treatment 24 h): 1.06
- PER2::LUC luminescence (time after treatment 30 h): 1.08

Compound: CC(=O)O[C@H]1C(=O)[C@@]2(C)[C@H]([C@H](OC(=O)c3ccccc3)[C@]3(O)C[C@H](OC(=O)[C@H](O)[C@@H](NC(=O)c4ccccc4)c4ccccc4)C(C)=C1C3(C)C)[C@]1(OC(C)=O)CO[C@@H]1C[C@@H]2O
- PER2::LUC luminescence (time after treatment 24 h): 0.59 and 0.416
- PER2::LUC luminescence (time after treatment 30 h): 0.561 and 0.534

Compound: Cc1[nH]c(=O)c(C#N)cc1-c1ccc2nccn2c1
- PER2::LUC luminescence (time after treatment 24 h): 0.995
- PER2::LUC luminescence (time after treatment 30 h): 0.827

Compound: NC(=O)c1cccc(-c2cccc(OC(=O)NC3CCCCC3)c2)c1
- PER2::LUC luminescence (time after treatment 24 h): 1.27
- PER2::LUC luminescence (time after treatment 30 h): 1.36

Compound: O=C([O-])[C@H](O)[C@@H](O)[C@H](O)[C@H](O)CO.O=C([O-])[C@H](O)[C@@H](O)[C@H](O)[C@H](O)CO.[Ca+2]
- PER2::LUC luminescence (time after treatment 24 h): 0.98
- PER2::LUC luminescence (time after treatment 30 h): 0.977

Compound: C/C=C/c1ccc(OC)cc1
- PER2::LUC luminescence (time after treatment 24 h): 0.881 and 1.03
- PER2::LUC luminescence (time after treatment 30 h): 0.883 and 1.12

Compound: C=C(C)[C@@H]1CC[C@]2(CO)CC[C@]3(C)[C@H](CC[C@@H]4[C@@]5(C)CC[C@H](O)C(C)(C)[C@@H]5CC[C@]43C)[C@@H]12
- PER2::LUC luminescence (time after treatment 24 h): 0.986
- PER2::LUC luminescence (time after treatment 30 h): 0.977

Compound: CCCN(CCC)CCc1cccc2c1CC(=O)N2
- PER2::LUC luminescence (time after treatment 24 h): 0.821
- PER2::LUC luminescence (time after treatment 30 h): 0.925

Compound: O[C@H]1[C@H](O)[C@@H](O)[C@H](O)[C@@H](O)[C@H]1O
- PER2::LUC luminescence (time after treatment 24 h): 1.14
- PER2::LUC luminescence (time after treatment 30 h): 0.974

Compound: N=C(N)c1ccc(N)cc1
- PER2::LUC luminescence (time after treatment 24 h): 0.971
- PER2::LUC luminescence (time after treatment 30 h): 1.01

Compound: COc1ccc2c(c1)CC[C@@H]1[C@@H]2CC[C@]2(C)[C@@H](O)CC[C@@H]12
- PER2::LUC luminescence (time after treatment 24 h): 1.15
- PER2::LUC luminescence (time after treatment 30 h): 1.18

Compound: CCOc1ccc(-n2c(C(C)N(Cc3cccnc3)C(=O)Cc3ccc(OC(F)(F)F)cc3)nc3ncccc3c2=O)cc1 (stereo unspecified)
- PER2::LUC luminescence (time after treatment 24 h): 0.97
- PER2::LUC luminescence (time after treatment 30 h): 0.944

Compound: COC(=O)C[C@](O)(CCCC(C)(C)O)C(=O)O[C@@H]1C(OC)=C[C@]23CCCN2CCc2cc4c(cc2[C@H]13)OCO4
- PER2::LUC luminescence (time after treatment 24 h): 1.07
- PER2::LUC luminescence (time after treatment 30 h): 1

Compound: CCC1(C)OC(=O)N(C)C1=O (stereo unspecified)
- PER2::LUC luminescence (time after treatment 24 h): 0.982
- PER2::LUC luminescence (time after treatment 30 h): 0.882

Compound: O=C(O)c1nc(=O)[nH]c(=O)[nH]1
- PER2::LUC luminescence (time after treatment 24 h): 0.981
- PER2::LUC luminescence (time after treatment 30 h): 1.09

Compound: NC(=O)CCCCn1ccc(NC(N)=NCC(F)(F)F)n1
- PER2::LUC luminescence (time after treatment 24 h): 0.917
- PER2::LUC luminescence (time after treatment 30 h): 1.04

Compound: O=C(OOC(=O)c1ccccc1)c1ccccc1
- PER2::LUC luminescence (time after treatment 24 h): 1.2
- PER2::LUC luminescence (time after treatment 30 h): 0.843

Compound: Nc1cc(=O)[nH]c(N)n1
- PER2::LUC luminescence (time after treatment 24 h): 1.03
- PER2::LUC luminescence (time after treatment 30 h): 0.934

Compound: N[C@@H](Cc1c[nH]c2ccccc12)C(=O)O
- PER2::LUC luminescence (time after treatment 24 h): 1.04 and 0.95
- PER2::LUC luminescence (time after treatment 30 h): 1 and 0.948

Compound: CCC(C)[C@H](NC(=O)[C@H](CCCN=C(N)N)NC(=O)[C@H](CCC(=O)O)NC(=O)[C@@H]1CCCN(C(=O)[C@H](CO)NC(=O)[C@@H](NC(=O)[C@@H](N)CCCN=C(N)N)C(C)CC)C1)C(=O)N[C@@H](CC(=O)O)C(=O)N[C@@H](C)C(=O)N[C@@H](CC(C)C)C(=O)O (stereo partly specified)
- PER2::LUC luminescence (time after treatment 24 h): 0.943
- PER2::LUC luminescence (time after treatment 30 h): 0.843

Compound: CC(O)Cn1cnc2c1c(=O)n(C)c(=O)n2C (stereo unspecified)
- PER2::LUC luminescence (time after treatment 24 h): 1.04
- PER2::LUC luminescence (time after treatment 30 h): 1.06

Compound: COC1(C2=NCCN2)COc2ccccc2O1 (stereo unspecified)
- PER2::LUC luminescence (time after treatment 24 h): 1.02
- PER2::LUC luminescence (time after treatment 30 h): 1.01

Compound: CC(C)NC[C@@H](O)COc1ccc(CC(N)=O)cc1
- PER2::LUC luminescence (time after treatment 24 h): 1.01
- PER2::LUC luminescence (time after treatment 30 h): 0.958

Compound: NS(=O)(=O)c1cc2c(cc1C(F)(F)F)NCNS2(=O)=O
- PER2::LUC luminescence (time after treatment 24 h): 0.595
- PER2::LUC luminescence (time after treatment 30 h): 0.928

Compound: OC[C@H]1O[C@@H](n2cnc3c(N[C@H]4CCC[C@@H]4O)ncnc32)[C@H](O)[C@@H]1O
- PER2::LUC luminescence (time after treatment 24 h): 0.991
- PER2::LUC luminescence (time after treatment 30 h): 0.94

Compound: COc1ccccc1N1CCN(CCCCNC(=O)c2ccc(-c3ccc(C(C)=O)cc3)cc2)CC1
- PER2::LUC luminescence (time after treatment 24 h): 0.815
- PER2::LUC luminescence (time after treatment 30 h): 0.7

Compound: NC(=O)CCCCC1CCSS1 (stereo unspecified)
- PER2::LUC luminescence (time after treatment 24 h): 0.836 and 0.804
- PER2::LUC luminescence (time after treatment 30 h): 0.96 and 0.852

Compound: C=C(C)[C@H]1CC=C(C)CC1
- PER2::LUC luminescence (time after treatment 24 h): 1 and 1.16
- PER2::LUC luminescence (time after treatment 30 h): 0.975 and 0.762

Compound: C#Cc1cnc2nc(O)n(C(CC)CC)c2n1
- PER2::LUC luminescence (time after treatment 24 h): 0.979
- PER2::LUC luminescence (time after treatment 30 h): 0.944

Compound: CS(=O)(=O)OCCCCOS(C)(=O)=O
- PER2::LUC luminescence (time after treatment 24 h): 1.11
- PER2::LUC luminescence (time after treatment 30 h): 0.735

Compound: Cc1c(NC(=O)c2cccnc2)c(=O)n(-c2ccccc2)n1C
- PER2::LUC luminescence (time after treatment 24 h): 1.03 and 0.915
- PER2::LUC luminescence (time after treatment 30 h): 1.03 and 1.04

Compound: N#Cc1ccc(-c2csc(NN=C3CCCC3)n2)cc1
- PER2::LUC luminescence (time after treatment 24 h): 1.13
- PER2::LUC luminescence (time after treatment 30 h): 1.23

Compound: O=C(/C=C/c1ccc(O)cc1)c1ccc(O)cc1O
- PER2::LUC luminescence (time after treatment 24 h): 1.24
- PER2::LUC luminescence (time after treatment 30 h): 1.41

Compound: O=[N+]([O-])c1cn(CCN2CCOCC2)cn1
- PER2::LUC luminescence (time after treatment 24 h): 0.977
- PER2::LUC luminescence (time after treatment 30 h): 0.974

Compound: CN1CC[C@@H](NC(=O)Nc2ccc(C#N)cc2)C[C@@H]1c1nc2ccccc2[nH]1
- PER2::LUC luminescence (time after treatment 24 h): 0.868
- PER2::LUC luminescence (time after treatment 30 h): 0.918
